Values joined by “and” are separate entries in the source; they are usually repeats but may differ in a detail not shown here. Equal entries are not always repeated. Among all 16,000 compounds or so, about 40 (0.2%) were called active. Roughly 1% stayed inconclusive and do not appear here. Calls follow the shape of the dose curve; as a rule, active = well fitted activation curve with a large enough effect; inconclusive = small, poorly fitted or top-dose-only effect, or another doubt; inactive = no such curve, though single readings can be large or run the other way. This is one part of the list. Starred links: 1 amine or outer side, 2 acyl side, 3 side chain; linkers in the order of their positions; H or OH if unused. Positions of bridges follow the written chain, without caps; N, C: chain ends. Non-standard residues stand in square brackets, D forms with d. Residues, ends and D or L forms follow the SMILES beside them. *: point of attachment. X5 = NC1=N[C@@H]([C@H](N[*:1])C(=O)[*:2])C[C@H](O)N1; ΔAla(Z-3-ureido) = NC(=O)N/C=C(\N)C(=O)O; β3hOrn = NCCC[C@H](N)CC(=O)*; Dap = NC[C@H](N)C(=O)O
Biological target: Rap guanine nucleotide exchange factor 4 (Homo sapiens) (UniProt Q8WZA2)
Assay: Validation qHTS for agonist of cAMP-regulated guanine nucleotide exchange factor 4 (EPAC2);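 also: exchange makes BODIPY-GDP fluorescence drop when released from Rap1B; series mostly up to about 150 µM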
Details: EPAC2 Rap1B BODIPY-GDP exchange, fluorescence; activation: hits give high values
In short: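 Signal normalized against 6.5 mM cAMP as agonist control. Mix of EPAC2 (100 nM), RAP1B-BODIPY-GDP (250 nM) and GDP (50 uM) was read kinetically at 480/540 nm, every 5 min over 30 min, after 5 min room-temperature incubation with compound.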
% is scaled to controls: 0 for no effect and ±100 for the full control effect.

UniProt Q8WZA2, sequence (Q8WZA2 whole entry, looked up): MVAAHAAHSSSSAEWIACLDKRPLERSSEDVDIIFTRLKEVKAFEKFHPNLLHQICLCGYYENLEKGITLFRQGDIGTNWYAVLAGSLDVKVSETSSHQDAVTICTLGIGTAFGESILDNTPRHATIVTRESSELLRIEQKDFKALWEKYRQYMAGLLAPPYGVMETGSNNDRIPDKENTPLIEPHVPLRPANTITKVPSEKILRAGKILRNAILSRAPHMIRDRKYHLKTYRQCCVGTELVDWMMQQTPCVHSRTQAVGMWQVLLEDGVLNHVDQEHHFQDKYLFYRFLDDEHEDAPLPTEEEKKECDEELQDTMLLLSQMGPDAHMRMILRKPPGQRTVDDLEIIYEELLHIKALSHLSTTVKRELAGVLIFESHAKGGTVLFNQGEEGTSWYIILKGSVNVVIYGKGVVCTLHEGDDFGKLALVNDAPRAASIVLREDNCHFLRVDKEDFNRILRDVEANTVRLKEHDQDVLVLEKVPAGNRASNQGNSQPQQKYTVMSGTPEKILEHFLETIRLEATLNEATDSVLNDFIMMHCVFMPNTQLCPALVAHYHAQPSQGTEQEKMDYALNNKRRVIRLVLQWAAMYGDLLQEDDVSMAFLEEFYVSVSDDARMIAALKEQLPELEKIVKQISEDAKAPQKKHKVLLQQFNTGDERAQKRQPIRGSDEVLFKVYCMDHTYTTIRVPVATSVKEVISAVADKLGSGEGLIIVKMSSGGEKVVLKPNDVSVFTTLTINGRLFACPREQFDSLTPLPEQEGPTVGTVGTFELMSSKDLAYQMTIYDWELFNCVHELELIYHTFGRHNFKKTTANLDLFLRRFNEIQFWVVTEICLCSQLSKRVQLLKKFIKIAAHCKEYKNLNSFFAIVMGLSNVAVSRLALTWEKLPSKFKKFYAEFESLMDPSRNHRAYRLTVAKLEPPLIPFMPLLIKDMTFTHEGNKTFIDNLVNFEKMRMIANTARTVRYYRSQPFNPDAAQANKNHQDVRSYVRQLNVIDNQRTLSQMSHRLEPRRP

activation, inactive:
CC[C@@](N)(C(=O)O)c1ccc(C(=O)O)cc1 -22.1%, CCOC(=O)CN[C@@H](C(=O)N1CC[C@H]1C(=O)NCc1ccc(/C(N)=N/O)cc1)C1CCCCC1 2.24%, COc1ccc(NC(=O)N2CC3(CCN(S(C)(=O)=O)CC3)C2)cc1 -2.4%, O=C(c1cnccn1)N1CCC2(CC1)CN(Cc1nccs1)C2 0.907%, COCC(=O)Nc1cc(C(=O)N2CCCC(C(N)=O)C2)cc2nc(-c3ccccc3)n(C)c12 (centres undefined) -16.7%, O=C1OC(CN2CCOCC2)CN1/N=C/c1ccc([N+](=O)[O-])o1 (centres undefined) -1.25%, COc1ccc(Oc2ncc3nc(-c4cccc(C#N)c4)c(=O)n(C)c3n2)cc1 -5.66%, CC1=C(/C=C/C(C)=C/C=C/C(C)=C/C=C/C=C(C)/C=C/C=C(C)/C=C/C2=C(C)C[C@@H](O)CC2(C)C)C(C)(C)C[C@H](O)C1 -28.3%, COc1ccc(-c2ccc(C(=O)N(C)Cc3csc(C)n3)c(N3CCC(N4CCc5ccccc5C4)CC3)n2)cc1 2.21%, N#Cc1cccc(-c2nc(NCc3cccs3)c3ccccc3n2)c1 -44.8%, Cc1nc2cnc(Nc3ccccc3)nc2n(C)c1=O 6.36%, CC(=O)c1ccc(-c2ccc3c4c(ccc3c2)OC(CNC(=O)C(C)N2CCOCC2)C4)s1 (centres undefined) -12.1%, COCCCNc1ncnc2sc(C(=O)N3CCCCC3)c(C)c12 -4.74%, COCc1c(C(=O)NCC2CCCN(C)C2)cnn1-c1ncc2c(n1)-c1ccccc1CCC2 (centres undefined) -0.582%, O=C(c1ccco1)N1CCC2(CC1)CN(c1ccc(-c3ccccc3)cc1)C2 9.86%, CCN(CC)CCOc1ccccc1C(=O)CCc1ccccc1 -13.1%, CNCCCN1c2ccccc2CCc2ccccc21 -9.72% and 6.06% and -15%, COc1ccc(CN2CCOc3c(cc(-c4cccc(OC)n4)cc3OC)C2)c(O)c1 5.29%, O=S(=O)(c1ccccc1)N1CCC2(CCN(c3ccc(-c4ccccc4)cc3)CC2)CC1 -30.6%, O=C(NCc1nnc2n1CCN(Cc1ccccc1C(F)(F)F)CC2)c1ccncc1 -18.7%, N.N.O=C(O)C1(C(=O)O)CCC1.[Pt] -36.7% and -12.4%, COc1cc2cc[n+]3cc4c(OC)c(OC)ccc4cc3c2cc1OC -3.6%, Fc1ccc([C@@H]2CCNC[C@H]2COc2ccc3c(c2)OCO3)cc1 -3.89% and 4.92%, Cc1cccc(C)c1N(CCCc1cccnc1)C(=O)C(C)N (centres undefined) 4.5%, Cc1nc2cncnc2n(-c2ccccc2)c1=O 2.6%, O=C(Cc1cscn1)N1CCOc2ccc(CN3CCN(c4ccccn4)CC3)cc2C1 -1.17%, CN(C/C=C/C#CC(C)(C)C)Cc1cccc2ccccc12 -0.611%, CCCCCC(=O)O[C@@]1(C(C)=O)CCC2C3CCC4=CC(=O)CC[C@@]4(C)C3CC[C@]21C (some centres undefined) 11%, CC(C)(C)CC(C)(C)N=C1Nc2ccccc2N[C@]12C[C@H]1CCCC(=O)N3CC[C@@H](C2)[C@@H]13 -43.1%, O=c1[nH]cnc2c1ncn2[C@H]1CC[C@@H](CO)O1 -23.6%, CCCCCCc1ccc(N2C[C@H](Cc3ccccc3)[C@@H](CC(=O)Nc3ccccc3)C2=O)cc1 3.68%, NCC1OC(OC2C(N)CC(N)[C@@H](O)[C@@H]2OC2O[C@H](CO)[C@@H](O[C@@H]3OC(CN)C(O)C(O)C3N)C2O)C(N)C(O)C1O (some centres undefined) -16.7%, NCCC[C@H](N)CC(=O)N[C@H]1CNC(=O)[C@H]([C@H]2C[C@H](O)NC(N)=N2)NC(=O)/C(=C/NC(N)=O)NC(=O)[C@H](CO)NC(=O)[C@H](CO)NC1=O (β3hOrn-[Dap]SS[ΔAla(Z-3-ureido)][X5]; lactam 1-C) -19.1%, CS(=O)(=O)Nc1cccc(-c2cncnc2-n2ccnc2)c1 -20.2%, C/C=C1/C(=O)C[C@@H]2[C@H]3CCC4=CC(=O)CC[C@]4(C)[C@@H]3CC[C@]12C -4.77%, O=C(NC1CCCCC1)NC1CCCCC1 -4.27%, CC12CCC3C(=CCc4cc(O)ccc43)C1CCC2=O (centres undefined) -16.5%, COc1ccccc1CNc1ncnc2ccc(-c3ccc(C(=O)N(C)C)cc3)cc12 -18.1%, Cc1noc(C)c1-c1nccc(N(C)Cc2ccco2)n1 -6.54%, COc1ccc(C(C)C(=O)c2ccc(O)cc2O)cc1 (centres undefined) -4.36%, NC1(C(=O)O)CCc2cc(C(=O)O)ccc21 (centres undefined) -2.03% and -10.4%, NC(CO)C(=O)NNCc1ccc(O)c(O)c1O (centres undefined) 8.29% and 8.47% and -41.1%, CCCCCCCCCCC(CO)CCCCCCCC (centres undefined) -18.7%, C=C1CCC2C(CC2(C)C)C(=O)CCC1O (centres undefined) -12.9%, Nc1nc2c(c(=O)[nH]1)N(C=O)C(CNc1ccc(C(=O)N[C@@H](CCC(=O)O)C(=O)O)cc1)CN2 (some centres undefined) -22.4%, COc1ccccc1CCNc1ncnc2sc(C(=O)N3CCCN(C=O)CC3)c(C)c12 0.376%, COCC(=O)Nc1cc(Sc2ccccc2)ccc1N=C(NC(=O)OC)NC(=O)OC 7.91%, COc1cccc(Cn2c(=O)cnc3cnc(N(C)C)nc32)c1 -16.1%, C[C@]12CCC3c4ccc(O)cc4CCC3C1CCC2OC(=O)CCC1CCCC1 (some centres undefined) -7.93%, COc1ccc2c(c1OC)C(=O)N1c3ccccc3C(=O)OC21 (centres undefined) -12.3%, Cc1nc2cnc(N3CCOCC3)nc2n(C[C@H]2CCCO2)c1=O -11.2%, Cc1cccc(C(=O)NCN2CCN(c3ccccc3C#N)CC2)c1 6.04% and -13% and -24.2%, C/C(O)=C1\C(=O)[C@@H]2[C@H]3c4c[nH]c5cccc(c45)C[C@H]3C(C)(C)N2C1=O 2.45% and -8.53%, C/C=C1\[C@H]2C=C(C)C[C@]1(N)c1ccc(=O)[nH]c1C2 0.481%, O=C(CS)Nc1ccccc1 1.14%, O=C(NCC1CCC2(CCN(Cc3c[nH]c4ccccc34)CC2)O1)C1CCOCC1 (centres undefined) 1.11%, COc1ccc(-c2nc3cnc(N4CCN(C)CC4)nc3n(-c3ccc(OC)cc3)c2=O)cc1 -13.6%, O=c1[nH]cnc2[nH]ncc12 -25.3% and -1.89%, CS(=O)(=O)Nc1cccc(-c2ccc3ncnc(NCCN4CCOCC4)c3c2)c1 -14.6%, CN(C)C(=O)Oc1cccc([N+](C)(C)C)c1 -3.39% and -16.7% and -7.58%, Cc1ccc2c(c1)C(N1CCN(C)CC1)=Nc1cccnc1N2 13.1%, COc1cccc(-c2cc(=O)c3ccc(OC)cc3o2)c1 -3.24%, CN1CCC(OC(c2ccccc2)c2ccccc2)CC1 -11.4%, COc1cccc(Cn2c(=O)c(CCc3ccccc3)nc3cnc(N4CCOCC4)nc32)c1 -5.96%, CCOC(=O)[C@H](CCc1ccccc1)N[C@@H](C)C(=O)N1Cc2cc(OC)c(OC)cc2C[C@H]1C(=O)O -18.6%, O=C(Oc1cccc2cccnc12)c1ccccc1 -5.8%, CCCCCCOc1ccc(C(=N)N(CCCC)CCCC)c2ccccc12 -30.1%, O=C1[C@H](Cc2ccccc2)NCCCC[C@H](c2ccc(Cl)cc2)N1Cc1ccccc1 -9.44%, Cc1noc(C)c1C(=O)N1CCC[C@@]2(CCN(C(=O)Nc3cccc(C#N)c3)C2)C1 -13.3%, Clc1ccc(Nc2nnc(Cc3ccncc3)c3ccccc23)cc1 -11.8% and -0.915%, COc1cc2c(cc1OC)CN(C(=O)[C@@H]1C[C@H](NCc3cn(C)c4ccccc34)CN1C1Cc3ccccc3C1)CC2 -8.19%, C=CC(=O)O -29.6%, Cc1cc(O)c2c(c1)C(=O)c1cc(O)cc(O)c1C2=O 1.15% and -30.8%, CN(C)C(=O)c1ccc(-c2cc(N(C)Cc3ccco3)ncn2)cc1 1.37%, O=S(=O)(NCc1ccc(F)cc1)c1ccccc1Br -27.2%, CO[C@H]1C[C@@H]2CC[C@@H](C)[C@@](O)(O2)C(=O)C(=O)N2CCCC[C@H]2C(=O)O[C@H]([C@H](C)C[C@@H]2CC[C@@H](O)[C@H](OC)C2)CC(=O)[C@H](C)C=C(C)[C@@H](O)[C@@H](OC)C(=O)[C@H](C)C[C@H](C)/C=C/C=CC=C1C -42.7% and -40.5%, CN(Cc1ccco1)c1ncncc1-c1ccccc1C(F)(F)F -1.28%, CO/N=C(\C(=O)N[C@@H]1C(=O)N2C(C(=O)O)=C(CSc3cnns3)CS[C@H]12)c1csc(N)n1 -30%, CC(C)CN(C[C@@H](O)[C@H](Cc1ccccc1)NC(=O)O[C@H]1CO[C@H]2OCC[C@H]21)S(=O)(=O)c1ccc(N)cc1 -6.34%

From PubChem BioAssay AID1645887 (National Center for Advancing Translational Sciences (NCATS), 2021)
